Certain results were filed several times, with different values. They are shown here; other results are not. There may be further records. Values given together are repeats across runs, samples, wells, individuals or studies.
Columns and labels:
Format in all cases: toxicity, cell-based
[1] = system: HEK-293T; assay: Multiplex assay against HEK293T; conditions: human;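 on Population Tubulin-Different-Phenotype (%): share of the cells with healthy nuclei that show this phenotype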
Method in brief: (§1)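 Compound was added to live cells that had been stained at seeding with Hoechst33342, BioTracker Green Microtubule Cytoskeleton Dye, MitoTracker Red and Annexin V Alexa Fluor 680, and imaging followed on a CQ1 microscope at 37°C and 5% CO2. CellPathfinder machine-learning gating divided cells into Hoechst high-intensity objects or normal cells, normal cells into healthy, pyknosed or fragmented nuclei, and pyknosed cells into mitotic or apoptotic. Tubulin, mitochondrial-mass and membrane-permeability phenotypes are per cents of healthy-nucleus cells.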

[2] = system: U2OS; assay: Multiplex assay against U2OS; conditions: human; method in brief: as §1
[3] = system: Fibroblast; assay: Multiplex assay against human fibroblast; method in brief: as §1
[4] = 12 h, 1 µM, compound concentration 1 uM, replicate 1
[5] = 12 h, 1 µM, compound concentration 1 uM, replicate 2
[6] = 12 h, 10 µM, compound concentration 10 uM, replicate 1
[7] = 12 h, 10 µM, compound concentration 10 uM, replicate 2
[8] = 24 h, 1 µM, compound concentration 1 uM, replicate 1
[9] = 24 h, 1 µM, compound concentration 1 uM, replicate 2
[10] = 24 h, 10 µM, compound concentration 10 uM, replicate 1
[11] = 24 h, 10 µM, compound concentration 10 uM, replicate 2
[12] = 48 h, 1 µM, compound concentration 1 uM, replicate 2
[13] = 48 h, 10 µM, compound concentration 10 uM, replicate 2

O=C(NCCCC1CCCCC1)c1ccc(CNC(=O)c2cnn(-c3ccccc3)c2C(F)(F)F)cc1 [SR-321]
Population Mitochondria Different-Phenotype (%) [1, 4]: 75, 60, 74, 3%
Population Pyknosed Nuclei (%) [1, 4]: 60%, 51%, 16%
Population Tubulin-Different-Phenotype (%) [1, 4]: 32, 25, 37, 2%
Population Pyknosed Nuclei (%) [1, 5]: 58, 53, 50, 4%
Population Tubulin-Different-Phenotype (%) [1, 5]: 13, 20, 17, 5%
Total Cell Count [1, 5]: 190, 170, 173, 1739
Population Healthy Nuclei (%) [1, 6]: 16, 22, 24, 69%
Population Mitochondria Different-Phenotype (%) [1, 6]: 88, 84, 83, 9%
Population Pyknosed Nuclei (%) [1, 6]: 66, 60, 63, 21%
Population Tubulin-Different-Phenotype (%) [1, 6]: 41, 43, 50, 9%
Population Apoptotic (%) [1, 7]: 13, 28, 20, 3%
Population Fragmented Nuclei (%) [1, 7]: 3, 8, 10, 4%
Population Mitochondria Different-Phenotype (%) [1, 7]: 37, 31, 40, 12%
Population Pyknosed Nuclei (%) [1, 7]: 58, 59, 54, 7%
Total Cell Count [1, 7]: 220, 207, 193, 1414
Population Apoptotic (%) [1, 8]: 40, 45, 41, 14%
Population Mitochondria Different-Phenotype (%) [1, 8]: 46, 45, 63, 2%
Population Pyknosed Nuclei (%) [1, 8]: 43, 46, 48, 6%
Population Tubulin-Different-Phenotype (%) [1, 8]: 28, 22, 41, 3%
Population Apoptotic (%) [1, 9]: 17%, 10%, 5%
Population Fragmented Nuclei (%) [1, 9]: 8%, 4%, 27%
Population Mitochondria Different-Phenotype (%) [1, 9]: 4%, 9%, 1%
Population Pyknosed Nuclei (%) [1, 9]: 26, 29, 34, 1%
Total Cell Count [1, 9]: 222, 237, 264, 2967
Population Healthy Nuclei (%) [1, 10]: 23%, 17%, 81%
Population Hoechst High Intensity Objects (%) [1, 10]: 18, 19, 14, 6%
Population Mitochondria Different-Phenotype (%) [1, 10]: 88%, 85%, 5%
Population Pyknosed Nuclei (%) [1, 10]: 59, 62, 57, 10%
Total Cell Count [1, 10]: 269, 307, 244, 864
Population Apoptotic (%) [1, 11]: 26%, 18%, 4%
Population Fragmented Nuclei (%) [1, 11]: 5, 7, 4, 17%
Population Membrane Permeable-Phenotype (%) [1, 11]: 2%, 3%, 14%
Population Mitochondria Different-Phenotype (%) [1, 11]: 43, 46, 47, 3%
Population Pyknosed Nuclei (%) [1, 11]: 49, 36, 44, 3%
Total Cell Count [1, 11]: 249, 248, 279, 2237
Population Fragmented Nuclei (%) [2, 4]: 11%, 12%, 1%
Population Mitochondria Different-Phenotype (%) [2, 4]: 5%, 11%, 31%
Population Apoptotic (%) [2, 5]: 66%, 0%, 50%
Population Fragmented Nuclei (%) [2, 5]: 5, 40, 10, 4%
Population Mitochondria Different-Phenotype (%) [2, 5]: 10, 20, 2, 27%
Population Mitotic Cells (%) [2, 5]: 33%, 100%, 50%
Population Membrane Permeable-Phenotype (%) [2, 6]: 6, 4, 2, 21%
Population Apoptotic (%) [2, 7]: 20, 50, 18, 11%
Population Fragmented Nuclei (%) [2, 7]: 21%, 17%, 4%
Population Hoechst High Intensity Objects (%) [2, 7]: 26, 5, 8, 7%
Population Mitochondria Different-Phenotype (%) [2, 7]: 22, 33, 2, 26%
Population Pyknosed Nuclei (%) [2, 7]: 6%, 20%, 9%
Population Tubulin-Different-Phenotype (%) [2, 7]: 9, 23, 5, 10%
Population Hoechst High Intensity Objects (%) [2, 8]: 5%, 3%, 1%
Population Mitochondria Different-Phenotype (%) [2, 8]: 4%, 5%, 29%
Population Apoptotic (%) [2, 9]: 0% and 60%
Population Fragmented Nuclei (%) [2, 9]: 29%, 10%, 3%
Population Hoechst High Intensity Objects (%) [2, 9]: 14, 4, 10, 2%
Population Pyknosed Nuclei (%) [2, 9]: 3%, 14%, 2%
Population Fragmented Nuclei (%) [2, 10]: 12, 8, 11, 3%
Population Apoptotic (%) [2, 11]: 50%, 33%, 11%
Population Fragmented Nuclei (%) [2, 11]: 20%, 16%, 6%
Population Hoechst High Intensity Objects (%) [2, 11]: 6, 18, 7, 3%
Population Membrane Permeable-Phenotype (%) [2, 11]: 10%, 1%, 11%
Population Mitochondria Different-Phenotype (%) [2, 11]: 23, 14, 5, 21%
Population Tubulin-Different-Phenotype (%) [2, 11]: 26%, 5%, 16%
Population Apoptotic (%) [2, 12]: 70%, 0%, 28%
Population Mitotic Cells (%) [2, 12]: 30%, 100%, 71%
Population Hoechst High Intensity Objects (%) [2, 13]: 17%, 5%, 8%
Population Pyknosed Nuclei (%) [2, 13]: 20%, 6%, 16%
Population Membrane Permeable-Phenotype (%) [3, 4]: 21, 20, 25, 3%
Population Tubulin-Different-Phenotype (%) [3, 4]: 39, 33, 51, 2%
Population Apoptotic (%) [3, 5]: 66, 0, 50, 100%
Population Fragmented Nuclei (%) [3, 5]: 5, 40, 10, 73%
Population Healthy Nuclei (%) [3, 5]: 89, 53, 83, 21%
Population Hoechst High Intensity Objects (%) [3, 5]: 8, 21, 7, 43%
Population Mitochondria Different-Phenotype (%) [3, 5]: 10, 20, 2, 11%
Population Mitotic Cells (%) [3, 5]: 33, 100, 50, 0%
Population Tubulin-Different-Phenotype (%) [3, 5]: 20%, 26%, 0%
Population Membrane Permeable-Phenotype (%) [3, 6]: 32, 22, 21, 9%
Population Mitochondria Different-Phenotype (%) [3, 6]: 13, 25, 11, 5%
Population Tubulin-Different-Phenotype (%) [3, 6]: 39, 52, 72, 14%
Population Apoptotic (%) [3, 7]: 20%, 18%, 55%
Population Fragmented Nuclei (%) [3, 7]: 21, 17, 9, 50%
Population Hoechst High Intensity Objects (%) [3, 7]: 26, 5, 8, 29%
Population Mitochondria Different-Phenotype (%) [3, 7]: 22, 33, 2, 7%
Population Pyknosed Nuclei (%) [3, 7]: 6, 15, 20, 12%
Population Tubulin-Different-Phenotype (%) [3, 7]: 9, 23, 5, 40%
Population Membrane Permeable-Phenotype (%) [3, 8]: 30, 23, 22, 7%
Population Tubulin-Different-Phenotype (%) [3, 8]: 40, 46, 56, 1%
Population Apoptotic (%) [3, 9]: 0%, 60%, 40%
Population Fragmented Nuclei (%) [3, 9]: 29, 10, 11, 67%
Population Healthy Nuclei (%) [3, 9]: 66, 82, 74, 25%
Population Hoechst High Intensity Objects (%) [3, 9]: 14, 4, 10, 43%
Population Pyknosed Nuclei (%) [3, 9]: 3%, 7%, 14%
Population Tubulin-Different-Phenotype (%) [3, 9]: 30%, 15%, 0%
Population Membrane Permeable-Phenotype (%) [3, 10]: 25, 18, 16, 6%
Population Mitochondria Different-Phenotype (%) [3, 10]: 27, 18, 28, 2%
Population Tubulin-Different-Phenotype (%) [3, 10]: 54, 63, 78, 14%
Population Hoechst High Intensity Objects (%) [3, 11]: 6, 18, 7, 36%
Population Mitochondria Different-Phenotype (%) [3, 11]: 23, 14, 5, 4%
Population Tubulin-Different-Phenotype (%) [3, 11]: 26, 9, 5, 23%
Population Apoptotic (%) [3, 12]: 100% and 0%
Population Membrane Permeable-Phenotype (%) [3, 13]: 25%, 16%, 8%
Population Mitotic Cells (%) [3, 13]: 50% and 0%
Population Pyknosed Nuclei (%) [3, 13]: 4%, 1%, 3%

From ChEMBL document CHEMBL4689842, “EUbOPEN Chemogenomics Library wave 1” (2021)
